# According to the supplement of paper PMC8728848:
# The other results are listed elsewhere or left out.
# B1: Cohesin-hDC-ASGPR (Homo sapiens) (protein)
# chain: LDDLDAVRIKVDTVNAKPGDTVRIPVRFSGIPSKGIANCDFVYSYDPNVLEIIEIEPGDIIVDPNPDKSFDTAVYPDRKIIVFLFAEDSGTGAYAITKDGVFATIVAKVKEGAPNGLSVIKFVEVGGFANNDLVEQKTQFFDGGANVGDTTEPATPTTPVTTPTTTDDLDAASQNSKFQRDLVTLRTDFSNFTSNTVAEIQALTSQGSSLEETIASLKAEVEGFKQERQAGVSELQEHTTQKAHLGHCPHCPSVCVPVHSEMLLRVQQLVQDLKKLTCQVATLNNNASTEGTCCPVNWVEHQDSCYWFSHSGMSWAEAEKYCQLKNAHLVVINSREEQNFVQKYLGSAYTWMGLSDPEGAWKWVDGTDYATGFQNWKPGQPDDWQGHGLGGGEDCAHFHPDGRWNDDVCQRPYHWVCEAGLGQTSQESHHHHHH
# What was measured:
# Test in all cases: glycan array binding signal (z-score within array); higher = stronger binding
# Details in all cases: glycan notation: IUPAC condensed, linker removed
# Fuc(a1-2)Gal = target: Fuc(a1-2)Gal
# Outline: (§1)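 Columns mapping to the same glycan were averaged after glycan names were converted to IUPAC-condensed notation. The data come from 3228 arrays in the Consortium for Functional Glycomics database, limited to those with an available protein sequence. Binding is reported as a within-array Z-score averaged across arrays of one protein sequence and across linkers.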
# Fuc(a1-2)Gal(b1-3)GalNAc = target: Fuc(a1-2)Gal(b1-3)GalNAc
# Outline: as §1
# [1] = target: Fuc(a1-2)Gal(b1-3)GalNAc(a1-3)[Fuc(a1-2)]Gal(b1-4)Glc
# Outline: as §1
# [2] = target: Fuc(a1-2)Gal(b1-3)GalNAc(a1-3)[Fuc(a1-2)]Gal(b1-4)GlcNAc
# Outline: as §1
# [3] = target: Fuc(a1-2)Gal(b1-3)GalNAc(b1-3)Gal
# Outline: as §1
# [4] = target: Fuc(a1-2)Gal(b1-3)GalNAc(b1-3)Gal(a1-4)Gal(b1-4)Glc
# Outline: as §1
# [5] = target: Fuc(a1-2)Gal(b1-3)GalNAc(b1-4)[Neu5Ac(a2-3)]Gal(b1-4)Glc
# Outline: as §1
# Fuc(a1-2)Gal(b1-3)GlcNAc = target: Fuc(a1-2)Gal(b1-3)GlcNAc
# Outline: as §1
# [6] = target: Fuc(a1-2)Gal(b1-3)GlcNAc(b1-2)Man(a1-3)[Fuc(a1-2)Gal(b1-3)GlcNAc(b1-2)Man(a1-6)]Man(b1-4)GlcNAc(b1-4)GlcNAc
# Outline: as §1
# [7] = target: Fuc(a1-2)Gal(b1-3)GlcNAc(b1-2)Man(a1-3)[Fuc(a1-2)Gal(b1-3)GlcNAc(b1-2)Man(a1-6)]Man(b1-4)GlcNAc(b1-4)[Fuc(a1-6)]GlcNAc
# Outline: as §1
# [8] = target: Fuc(a1-2)Gal(b1-3)GlcNAc(b1-3)Gal(b1-4)Glc
# Outline: as §1
# [9] = target: Fuc(a1-2)Gal(b1-3)GlcNAc(b1-3)GalNAc
# Outline: as §1
# [10] = target: Fuc(a1-2)Gal(b1-3)GlcNAc(b1-3)[Fuc(a1-2)Gal(b1-3)GlcNAc(b1-6)]GalNAc
# Outline: as §1
# [11] = target: Fuc(a1-2)Gal(b1-3)GlcNAc(b1-3)[Gal(b1-4)GlcNAc(b1-6)]Gal(b1-4)Glc
# Outline: as §1
# [12] = target: Fuc(a1-2)Gal(b1-3)GlcNAc(b1-3)[Neu5Ac(a2-6)Gal(b1-4)GlcNAc(b1-6)]Gal(b1-4)Glc
# Outline: as §1
# [13] = target: Fuc(a1-2)Gal(b1-3)GlcNAc6S
# Outline: as §1
# [14] = target: Fuc(a1-2)Gal(b1-3)[Fuc(a1-4)]GlcNAc
# Outline: as §1
# [15] = target: Fuc(a1-2)Gal(b1-3)[Fuc(a1-4)]GlcNAc(b1-2)Man(a1-3)[Fuc(a1-2)Gal(b1-3)[Fuc(a1-4)]GlcNAc(b1-2)Man(a1-3)]Man(b1-4)GlcNAc(b1-4)GlcNAc
# Outline: as §1
# [16] = target: Fuc(a1-2)Gal(b1-3)[Fuc(a1-4)]GlcNAc(b1-2)Man(a1-3)[Fuc(a1-2)Gal(b1-3)[Fuc(a1-4)]GlcNAc(b1-2)Man(a1-6)]Man(b1-4)GlcNAc(b1-4)[Fuc(a1-6)]GlcNAc(b1-4)[Fuc(a1-6)]GlcNAc
# Outline: as §1
# [17] = target: Fuc(a1-2)Gal(b1-3)[Fuc(a1-4)]GlcNAc(b1-3)[Fuc(a1-3)[Gal(b1-4)]GlcNAc(b1-6)]Gal(b1-4)Glc
# Outline: as §1
# [18] = target: Fuc(a1-2)Gal(b1-3)[Fuc(a1-4)]GlcNAc(b1-3)[Gal(b1-4)GlcNAc(b1-6)]Gal(b1-4)Glc
# Outline: as §1
# Fuc(a1-2)Gal(b1-4)Glc = target: Fuc(a1-2)Gal(b1-4)Glc
# Outline: as §1
# Fuc(a1-2)Gal(b1-4)Glc6S = target: Fuc(a1-2)Gal(b1-4)Glc6S
# Outline: as §1
# Fuc(a1-2)Gal(b1-4)GlcNAc = target: Fuc(a1-2)Gal(b1-4)GlcNAc
# Outline: as §1
# [19] = target: Fuc(a1-2)Gal(b1-4)GlcNAc(b1-2)Man
# Outline: as §1
# [20] = target: Fuc(a1-2)Gal(b1-4)GlcNAc(b1-2)Man(a1-3)[Fuc(a1-2)Gal(b1-4)GlcNAc(b1-2)Man(a1-6)]Man(b1-4)GlcNAc(b1-4)GlcNAc
# Outline: as §1
# [21] = target: Fuc(a1-2)Gal(b1-4)GlcNAc(b1-2)Man(a1-3)[Fuc(a1-2)Gal(b1-4)GlcNAc(b1-2)Man(a1-6)]Man(b1-4)GlcNAc(b1-4)[Fuc(a1-6)]GlcNAc
# Outline: as §1
# [22] = target: Fuc(a1-2)Gal(b1-4)GlcNAc(b1-2)[Fuc(a1-2)Gal(b1-4)GlcNAc(b1-4)]Man(a1-3)[Fuc(a1-2)Gal(b1-4)GlcNAc(b1-2)Man(a1-6)]Man(b1-4)GlcNAc(b1-4)GlcNAc
# Outline: as §1
# [23] = target: Fuc(a1-2)Gal(b1-4)GlcNAc(b1-3)Gal(b1-4)GlcNAc
# Outline: as §1
# [24] = target: Fuc(a1-2)Gal(b1-4)GlcNAc(b1-3)Gal(b1-4)GlcNAc(b1-2)Man(a1-3)[Fuc(a1-2)Gal(b1-4)GlcNAc(b1-3)Gal(b1-4)GlcNAc(b1-2)Man(a1-6)]Man(b1-4)GlcNAc(b1-4)GlcNAc
# Outline: as §1
binder,measurement,setting,value
B1,glycan array binding signal (z-score),Fuc(a1-2)Gal,-0.306
same,glycan array binding signal (z-score),Fuc(a1-2)Gal(b1-3)GalNAc,-0.496
same,glycan array binding signal (z-score),[1],-0.508
same,glycan array binding signal (z-score),[2],-0.457
same,glycan array binding signal (z-score),[3],0.094
same,glycan array binding signal (z-score),[4],-0.381
same,glycan array binding signal (z-score),[5],0.855
same,glycan array binding signal (z-score),Fuc(a1-2)Gal(b1-3)GlcNAc,-0.412
same,glycan array binding signal (z-score),[6],-0.221
same,glycan array binding signal (z-score),[7],0.018
same,glycan array binding signal (z-score),[8],-0.503
same,glycan array binding signal (z-score),[9],-0.391
same,glycan array binding signal (z-score),[10],-0.465
same,glycan array binding signal (z-score),[11],-0.38
same,glycan array binding signal (z-score),[12],-0.398
same,glycan array binding signal (z-score),[13],0.912
same,glycan array binding signal (z-score),[14],-0.434
same,glycan array binding signal (z-score),[15],-0.173
same,glycan array binding signal (z-score),[16],-0.214
same,glycan array binding signal (z-score),[17],-0.508
same,glycan array binding signal (z-score),[18],-0.454
same,glycan array binding signal (z-score),Fuc(a1-2)Gal(b1-4)Glc,-0.252
same,glycan array binding signal (z-score),Fuc(a1-2)Gal(b1-4)Glc6S,-0.472
same,glycan array binding signal (z-score),Fuc(a1-2)Gal(b1-4)GlcNAc,-0.256
same,glycan array binding signal (z-score),[19],-0.43
same,glycan array binding signal (z-score),[20],-0.377
same,glycan array binding signal (z-score),[21],0.562
same,glycan array binding signal (z-score),[22],-0.291
same,glycan array binding signal (z-score),[23],-0.306
same,glycan array binding signal (z-score),[24],0.227
